According to PubChem BioAssay AID1508624 (National Center for Advancing Translational Sciences (NCATS), 2021):
The campaign covered roughly 48,000 compounds. About 120 (0.25%) were called active. Roughly 4% stayed inconclusive and do not appear here. Calls come from the whole dose curve; as a rule, active = well fitted activation curve with a large enough effect; inconclusive = small, poorly fitted or top-dose-only effect, or another doubt; inactive = no such curve, though single readings can be large or run the other way. The list shows a part of the results.

Experiment: Primary qHTS for Identification of Small Molecule Activators of Huntingtin-Antisense Promoter Activity; note: nearly all actives have a fitted effect of over 55% in size
Conditions: HEK293 HTT-AS promoter firefly luciferase reporter, 24 h; series mostly up to 57.5 µM; activity change, positive = activation: at the top concentration
Summary of the method: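 Firefly luciferase signal from promoter-reporter HEK293 cells was scaled between vehicle (0%) and zero RLU (-100%). Compounds were tested at final concentrations of up to 57.5 uM over 24 h at 37 degrees C. PTC124 at 50 uM final served as control inhibitor.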

Activity change, positive = activation, inactive:
O=C(Nc1nnc(S(=O)(=O)N2CCCC2)s1)c1ccccc1Cl -4.45%
CCn1ccc2cc(S(=O)(=O)N3CCC(C(=O)NCc4ccc(OC(C)C)cc4)CC3)ccc21 -19.9%
COc1ccc(-c2nc3ccc(C(=O)NCc4ccccc4)cc3nc2-c2ccc(OC)cc2)cc1 -15.8%
Cc1ccccc1NC(=O)c1ccccc1NC(=O)c1ccccc1F -0.755%
CCCSc1nnc2c(n1)OC(CC)N(C(C)=O)c1ccccc1-2 (stereo unspecified) -3.55%
O=C(CN1C(=O)COc2ccc(S(=O)(=O)N3CCCCC3)cc21)NCCc1ccc(Cl)cc1 -9.24%
COC(=O)COc1ccc(Oc2nc(NC(C)(C)C)nc(N3CCOCC3)n2)nn1 -3.76%
CCOc1ccccc1CNC(=O)Cn1nc(C)c2nn(-c3ccc(Cl)cc3)c(C)c2c1=O -25.1%
COc1ccc(N2CCN(S(=O)(=O)c3c(C)nc4sc(C)cn4c3=O)CC2)cc1 -2.61%
COc1ccc(Cc2nc3c4cnn(-c5ccccc5Br)c4ncn3n2)cc1 -4.61%
CC1=C(c2ccc(C)c(C)c2)S(=O)(=O)N(Cc2ccc(C(=O)NCc3ccc(C)cc3)cc2)C1=O -13.3%
Cc1cccc(OCC(=O)NCc2ccc3c(c2)CCN3C(=O)c2ccccc2)c1 -8.67%
CCC(C)NC(=O)c1sc2nc(C)c(C(=O)Nc3ccc(C)cc3C)c(-c3ccc(Br)cc3)c2c1N (stereo unspecified) -5.61%
COc1cc(C2NC(=O)N(C)C3=C2C(=O)N(c2ccccc2)C3)ccc1O (stereo unspecified) 1.16%
Cc1ccc2[nH]c(=O)c3cc(C(=O)N4CCN(c5ccccc5F)CC4)sc3c2c1 -5.3%
COc1ccc(-c2cnc(NCc3ccc(C)cc3)n2C)cc1 -15.7%
O=C(CSc1nc(-c2ccccc2)cc(=O)[nH]1)Nc1ccccc1F -3.01%
CC1=C(C(=O)Nc2ccc(C)c(C)c2)C2(CCCCCC2)OC1=O -23.3%
COc1ccc(CCNC(=O)CSc2nc3ccccc3nc2Cc2ccc(C)cc2)cc1OC -17.1%
COc1ccccc1CNC(=O)c1nn(-c2ccc(C)cc2)c(=O)c2c1c1ccccc1n2C -2.23%
Cc1cccc(CSc2ncc(Cl)c(C(=O)Nc3sc4c(c3C#N)CCCC4)n2)c1 -3.44%
CCN(CC)c1nc2c(S(=O)(=O)c3ccc(C)cc3)nnn2c2ccsc12 -15.9%
COc1ccccc1NC(=O)CSc1oc(-c2cccs2)nc1S(=O)(=O)c1ccc(C)cc1 -0.81%
O=C(NCc1ccccc1)c1cccc(NC(=O)N2CCSc3ncccc32)c1 -10.4%
CCN(CC)CCOc1ccc(C(O)(Cc2ccc(Cl)cc2)c2ccc(C)cc2)cc1 (stereo unspecified) -4.98%
CCc1cccc(CC)c1NC(=O)Cc1csc(C)n1 -9.17%
Cc1cccc(CN2C(=O)c3ccccc3Sc3ccc(C(=O)NCCc4ccccc4)cc32)c1 -21.9%
CCC(=O)N1CCc2cc(CNS(=O)(=O)c3ccc(Cl)s3)ccc21 -28.3%
Cc1cc(Nc2cccc(F)c2)n2nc(-c3ccco3)nc2n1 -7.28%
COc1ccc(/C=C/C(=O)Nc2ccc(Cl)c(Cl)c2)cc1OC -2.46%
O=C(Cn1c(=O)oc2cc(S(=O)(=O)NCc3ccccc3)ccc21)NCc1ccc(F)cc1 -21.1%
CCOc1ccc(NC(=O)c2cc(CN3CCCC3)on2)cc1 -9.22%
O=C(Cn1nc(C(F)(F)F)c2c1CCCC2)Nc1ccc(F)c(Cl)c1 -56.1%
COc1ccc(-c2ccc(=O)n(CC(=O)Nc3ccc(N(C)C)cc3)n2)cc1 1.98%
Cc1c(C(=O)NCc2ccc(F)cc2)sc2nc3n(c(=O)c12)CCC3 -6.45%
CSc1ccc(C2c3c(oc4ccc(F)cc4c3=O)C(=O)N2c2ccc(C)cn2)cc1 (stereo unspecified) -1.06%
Cc1c(NC(=O)c2cc3ccccc3o2)cccc1-c1nc2ccccc2o1 -27.1%
Cc1ccc2nc(Nc3ccc(Br)cc3)nc(-c3ccccc3)c2c1 -13.8%
Cc1cccc(N(C)C(=O)C2CCN(S(=O)(=O)c3cccc4nonc34)CC2)c1 -16.7%
CCCCc1nn2c(=O)cc(COC(=O)CNC(=O)c3ccccc3C)nc2s1 -19.8%
CCOc1ccc2oc(=O)cc(CN3CCN(C(=O)c4ccc(Cl)cc4)CC3)c2c1 -33.4%
COc1ccc(OC)c(NC(=O)Cn2cc(C(=O)c3cccs3)c3ccccc32)c1 -29.1%
O=S(=O)(Nc1c(F)cccc1F)c1ccc2c(c1)OCCO2 -10.1%
Cc1ccc2oc(C(=O)Nc3c(C(=O)c4ccc(C)c(F)c4)oc4ccccc34)cc(=O)c2c1 3.17% [at 11.5 µM, percent change from vehicle, -100% = no light]
COc1ccc(C)cc1NC(=O)C(CCSC)NS(=O)(=O)c1ccc2c(c1)oc(=O)n2C (stereo unspecified) -24%
CCn1nnc2cc(C(=O)Nc3cccc(C(F)(F)F)c3)ccc21 6.7%
CCOC(=O)N1CCc2c(sc3c2c(=O)n(Cc2ccccc2)c(=O)n3CC(=O)Nc2ccccc2F)C1 -13.5%
CC(C)NC(=O)c1cnc2sc(N3CCCCCC3)nn2c1=O 9.27%
CCOC(=O)c1c(C)[nH]c(CCC(=O)Nc2ccc(N(CC)CC)cc2C)c1C -17.7%
COc1ccc(CN(C(=O)Nc2ccccc2)c2ccccn2)cc1OC 0.891%
Cc1ccc(S(=O)(=O)N(Cc2nc(-c3ccc(Cl)cc3)no2)C2CCCCC2)cc1 -26.2%
Cc1ccc(C)c(N2CCN(C(=O)C3CCN(Cc4nc(-c5cccc(Cl)c5)oc4C)CC3)CC2)c1 -33.9%
NC(=O)C1(N2CCCCC2)CCN(C(=O)Nc2ccc(Cl)c(Cl)c2)CC1 -8.89%
COc1cccc(NC(=O)c2sc3nc(C)c(C(=O)Nc4ccc(C)cc4C)c(-c4ccc(Br)cc4)c3c2N)c1 -8.21%
Cc1cc(Cl)ccc1NC(=O)C1CCN(S(=O)(=O)c2ccc3[nH]c(=O)ccc3c2)CC1 -12.5%
Cc1ccc2nc(SC(Cc3cc(Cl)ccc3Cl)C(=O)O)[nH]c2c1 (stereo unspecified) -9.32%
COc1ccc(CNC(=O)c2cc3sccc3n2C)cc1 8.11%
Cc1cccc(Cn2c(=O)n(CCc3ccccc3)c(=O)c3sc4ccccc4c32)c1 2.32%
Cc1ccc(CCNC(=O)CCSCc2ccccc2F)cc1 -2.4%
O=C(CCOc1ccccc1)N(Cc1cccnc1)c1nc2c(Cl)cccc2s1 -20.5%
Cc1ccc(C2c3[nH]c4ccccc4c3CCN2C(=O)c2ccc(N(C)C)cc2)cc1 (stereo unspecified) -27.8%
